Assay results taken from the GPR68 mutational scans of Howard et al. (2025).
Scores with a large standard error are left out. The source holds two more conditions with little spread; they are left out. In variant names, del marks residues removed and ins residues inserted between the two positions. For some assays here: The concentration of ogerin is not given here.

B1: GPR68, Q15743 (parent)
chain: MGNITADNSSMSCTIDHTIHQTLAPVVYVTVLVVGFPANCLSLYFGYLQIKARNELGVYLCNLTVADLFYICSLPFWLQYVLQHDNWSHGDLSCQVCGILLYENIYISVGFLCCISVDRYLAVAHPFRFHQFRTLKAAVGVSVVIWAKELLTSIYFLMHEEVIEDENQHRVCFEHYPIQAWQRAINYYRFLVGFLFPICLLLASYQGILRAVRRSHGTQKSRKDQIQRLVLSTVVIFLACFLPYHVLLLVRSVWEASCDFAKGVFNAYHFSLLLTSFNCVADPVLYCFVSETTHRDLARLRGACLAFLTCSRTGRAREAYPLGAPEASGKSGAQGEEPELLTKLHPAFQTPNSPGSGGFPTGRLA

How the values were obtained:
[1] = variants of: B1; test: cAMP reporter score (Enrich2 score, wild type = 0); higher = more signal; HEK293T, FACS bins
[2] = variants of: B1; test: surface expression score (Enrich2 score, wild type = 0); higher = more signal; HEK293T, FACS bins

| Variant | cAMP reporter score ([1]; pH 5.5) | cAMP reporter score ([1]; pH 6) | cAMP reporter score ([1]; pH 6, modulator: ogerin) | surface expression score [2] | cAMP reporter score ([1]; pH 6.5, modulator: ogerin) |
| --- | --- | --- | --- | --- | --- |
| H216L | -0.631 | 0.898 | – | – | – |
| H216M | -0.487 | – | 0.493 | -0.592 | – |
| H216N | -0.195 | -0.479 | -0.899 | -0.68 | – |
| H216P | -0.396 | – | -0.539 | 2.62 | -0.431 |
| H216Q | 0.877 | 0.315 | 0.725 | 1.28 | -0.5 |
| H216R | -0.286 | -0.194 | -0.347 | 0.273 | -0.836 |
| H216S | -0.29 | -0.943 | -0.739 | 0.231 | -0.995 |
| H216T | 1.02 | 2.02 | 0.744 | 1.25 | 0.836 |
| H216V | -0.351 | 0.664 | -0.03 | – | – |
| H216W | -0.15 | -0.972 | -0.764 | 0.239 | -0.674 |
| H216Y | -0.726 | -0.253 | -0.689 | -0.522 | -0.747 |
| H216_T218del | -0.677 | -0.397 | -1.21 | -0.182 | -1.38 |
| G217_T218insG | -1.29 | -0.033 | – | 0.556 | -0.425 |
| G217_T218insGS | -2.34 | -1.26 | -2.52 | 1.02 | -1.32 |
| G217_T218insGSG | -1.18 | -1.14 | -1.29 | 0.474 | -1.38 |
| T218_Q219del | -0.8 | -1.71 | -1.29 | -0.53 | -1.09 |
| T218_Q219insG | -0.12 | – | -0.703 | 0.978 | -1.93 |
| T218_Q219insGSG | -1.23 | -1.26 | -1.24 | 1.22 | -0.075 |
| T218del | -1.31 | – | – | 0.29 | -1.11 |
| Q219A | -0.276 | -0.258 | 0.41 | -0.353 | -0.602 |
| Q219C | 0.606 | – | 0.397 | -0.027 | 1.23 |
| Q219E | 1.12 | 1.41 | 1.52 | 2.28 | 2.22 |

| Variant | cAMP reporter score ([1]; pH 5.5) | cAMP reporter score ([1]; pH 6) | cAMP reporter score ([1]; pH 6, modulator: ogerin) | surface expression score [2] | cAMP reporter score ([1]; pH 6.5, modulator: ogerin) |
| --- | --- | --- | --- | --- | --- |
| Q219F | 0.42 | -1.16 | -0.76 | -0.671 | 0.171 |
| Q219G | 0.313 | -1.07 | -0.32 | -0.075 | -0.768 |
| Q219H | -0.545 | 0.359 | -0.751 | -0.349 | -0.078 |
| Q219I | 0.869 | -0.734 | 0.501 | -0.528 | 0.338 |
| Q219K | 1.13 | 0.726 | 1.31 | 0.865 | – |
| Q219L | 0.119 | 1.08 | -0.197 | 0.203 | -0.78 |
| Q219M | -0.241 | -0.129 | 0.233 | -0.091 | -0.352 |
| Q219N | 0.721 | 0.381 | 0.647 | 0.712 | 0.385 |
| Q219P | 0.945 | – | 0.912 | 0.415 | 2.71 |
| Q219R | -0.312 | -0.04 | -0.508 | -0.27 | -0.179 |
| Q219S | 1.13 | 2.87 | 1.76 | 0.987 | 2.13 |
| Q219T | 0.286 | 2.36 | 0.937 | 0.701 | 2.02 |
| Q219V | 0.922 | – | 0.736 | 2.17 | 0.408 |
| Q219W | -0.238 | -0.78 | -0.598 | -0.329 | -1.59 |
| Q219Y | 0.783 | -0.821 | 0.183 | 0.306 | -0.487 |
| Q219_K220del | -1.4 | -1.15 | -2.5 | -0.862 | -1.64 |
| Q219_K220insGSG | -1.25 | -1.4 | -1.53 | 0.818 | -1.01 |
| Q219_S221del | -1.17 | -1.06 | -1.43 | 0.991 | -0.936 |
| K220_R222del | -1.09 | -0.809 | -1.12 | -0.051 | -1.19 |
| K220_S221insG | -0.239 | -0.903 | -1.75 | -0.09 | -0.313 |
| K220_S221insGSG | -0.854 | -0.936 | -0.956 | 0.42 | -0.818 |
| S221_R222del | -0.588 | -0.658 | -0.739 | 0.151 | -0.22 |

| Variant | cAMP reporter score ([1]; pH 5.5) | cAMP reporter score ([1]; pH 6) | cAMP reporter score ([1]; pH 6, modulator: ogerin) | surface expression score [2] | cAMP reporter score ([1]; pH 6.5, modulator: ogerin) |
| --- | --- | --- | --- | --- | --- |
| S221_R222insGS | -1.08 | -0.269 | -1.04 | 0.091 | -0.772 |
| R222_K223del | -1.4 | -0.806 | -1.5 | -0.51 | -1.29 |
| R222_K223insG | -0.696 | – | – | 1.54 | -0.174 |
| K223_D224insGS | -0.288 | – | -1.91 | 2.4 | – |
| K223_D224insGSG | -1.47 | -0.104 | -1.41 | -0.149 | -1.25 |
| D224_Q225insGS | -1.36 | -1.56 | -1.69 | 0.155 | -1.3 |
| D224del | -0.382 | – | -0.648 | – | – |
| Q225A | -0.5 | – | -0.248 | -0.614 | – |
| Q225C | 0.047 | -0.477 | 0.137 | -0.945 | -0.271 |
| Q225D | 0.111 | -0.696 | -0.366 | -0.871 | -1.17 |
| Q225E | -1.54 | -1.18 | -1.4 | -1.5 | -1.21 |
| Q225F | 0.819 | -0.848 | 0.488 | -1.48 | – |
| Q225G | 0.225 | -0.146 | 0.417 | 0.433 | -0.493 |
| Q225H | 0.912 | – | 1.06 | 1.66 | -0.42 |
| Q225I | -0.345 | -1.16 | -0.921 | -0.304 | -1.22 |
| Q225K | 0.744 | – | 0.519 | 0.307 | – |
| Q225L | -1.05 | -0.451 | -0.919 | -0.111 | -0.412 |
| Q225M | -0.331 | – | -1.45 | -0.378 | -0.745 |
| Q225N | -0.413 | -0.269 | -1.35 | 0.171 | -1.12 |
| Q225P | -0.455 | – | -1.32 | -0.231 | -2.83 |
| Q225R | -0.313 | 0.567 | -0.221 | -0.089 | 1.18 |
